Several values for one entry are separate records, joined by “and”; a condition that tells them apart may be missing. Identical values can stand only once. Screen size: about 110,000 compounds; about 230 (0.21%) showed an effect of 50% or more. The list shows a part of the results.
molecular target: DPAP1 (Plasmodium falciparum, UniProt Q8IIJ9); assay: primary screen, percent inhibition; read by cleavage of a fluorogenic dipeptide substrate; higher = more effect of the substance; design: species or system P. falciparum D10 trophozoite lysates; single well
Sequence (Q8IIJ9 whole entry, looked up): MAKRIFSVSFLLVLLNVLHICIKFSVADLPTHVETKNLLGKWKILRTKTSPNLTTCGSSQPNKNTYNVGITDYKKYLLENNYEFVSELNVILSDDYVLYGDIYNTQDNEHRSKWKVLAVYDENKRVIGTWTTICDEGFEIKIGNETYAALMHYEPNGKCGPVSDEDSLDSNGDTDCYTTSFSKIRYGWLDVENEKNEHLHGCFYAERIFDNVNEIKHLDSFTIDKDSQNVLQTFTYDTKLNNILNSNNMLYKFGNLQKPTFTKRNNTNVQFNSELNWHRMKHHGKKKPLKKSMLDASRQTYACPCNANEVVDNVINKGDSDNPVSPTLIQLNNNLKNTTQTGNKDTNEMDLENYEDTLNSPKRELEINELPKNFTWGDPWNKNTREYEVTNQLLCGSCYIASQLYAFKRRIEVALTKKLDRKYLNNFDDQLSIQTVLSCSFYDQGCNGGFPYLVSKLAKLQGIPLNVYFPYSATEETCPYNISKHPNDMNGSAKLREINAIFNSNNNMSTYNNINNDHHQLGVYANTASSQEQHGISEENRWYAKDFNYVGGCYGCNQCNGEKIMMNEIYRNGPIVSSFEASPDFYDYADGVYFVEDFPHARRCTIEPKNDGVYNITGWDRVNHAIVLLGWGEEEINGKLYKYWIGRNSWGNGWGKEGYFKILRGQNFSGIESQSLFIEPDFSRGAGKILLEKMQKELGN
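Note: 30 min substrate incubation versus DMSO and 10 µM JCP410 controls.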

Structure (SMILES) | % Inhibition @ 10 uM
Cc1ccc2c(c1)c1c3c(nccn32)CCC1 | 6.08%
CCCCOc1ccc(C(=O)CCN2CCOCC2)cc1 | -7.08%
COc1ccc(C2C(C(=O)N3CCC(Cc4ccccc4)CC3)c3ccccc3C(=O)N2C)cc1 (stereo not drawn) | 5.11%
COc1ccc(C/N=C/c2c(NCc3ccc(OC)cc3)nc3c(C)cccn3c2=O)cc1 | -3.63%
COC(=O)c1ccc(C2c3c(oc4cc(C)c(C)cc4c3=O)C(=O)N2c2ccc(C)cn2)cc1 (stereo not drawn) | -1.33%
COc1ccc2c(CNCc3cccc(OC)c3OC)c(C(=O)O)n(Cc3ccc(F)cc3)c2c1 | 3.12%
COC(=O)c1ccc(/C=C2/NC(=O)N(Cc3ccc(Br)cc3)C2=O)cc1 | 1.52%
C=CC1CN2CCC1CC2[C@@H](OC(=O)c1ccc(OC)cc1)c1ccnc2ccccc12 (stereo partly drawn) | -1.86%
Cc1ccc(CNC(=O)CCCn2c(=O)c3cccn3c3cccnc32)cc1 | 6.89%
CC1=C(C(=O)OC2CCCC2)C(c2cc3c(cc2Br)OCO3)NC(=O)N1 (stereo not drawn) | 5.69%
Cc1c(C#N)c2ccccc2n1CC(=O)NCc1cccnc1 | 0.726%
CC(CCc1ccc(O)cc1)N1CCN(c2ccccn2)CC1 (stereo not drawn) | 5.03%
COc1ccc(CNCc2ccccc2OC)c(OC)c1 | -2.87%
O=C(NCC1c2ccccc2CCN1C(=O)C1CCCCC1)C1CCCCC1 (stereo not drawn) | -5.47%
CCOc1ccccc1N1CCN(Cc2ccc(O)cc2)CC1 | -3.77%
CCC1CCC(N2CCN(c3cccc(Cl)c3)CC2)CC1 (stereo not drawn) | -0.446%
Cc1nn(C)c(C)c1N1C(=O)c2cccc3c(N)ccc(c23)C1=O | -15.1%
CC(O)CN1C(=O)C(O)=C(C(=O)c2ccccc2)C1c1cccnc1 (stereo not drawn) | -3.97%
Cc1ccc(-c2nc(C(=O)N3CCN(c4ncccn4)CC3)c3n2CCCCC3)cc1 | -4.99%
O=C(NCc1ccco1)c1nc(Cn2c(C(F)(F)F)nc3ccccc32)no1 | 1.76%
Cc1ccc2oc(=O)c3cc(C(=O)NCC4CCCO4)sc3c2c1 (stereo not drawn) | -2.14%

Structure (SMILES) | % Inhibition @ 10 uM
O=C(NCCc1ccccc1)c1nn2c(c1Cl)NC(c1cccs1)CC2C(F)(F)F (stereo not drawn) | 7.93%
CCOC(=O)C1=C(NC(=O)CSc2nnnn2-c2ccccc2)SC2CN(C)CCC12 (stereo not drawn) | -6.94%
C=CCN1C(=O)C(CC(=O)Nc2cc(C)ccc2OC)S/C1=N\c1ccccc1 (stereo not drawn) | -0.173%
CCOc1ccc2[nH]c(SCC)nc2c1 | -0.341%
O=C(CCC1CCCCC1)NC1(C(F)(F)F)NC(=O)N(Cc2cccnc2)C1=O (stereo not drawn) | -0.132%
CCc1ccc(N2CC(C(=O)Nc3ccccc3C(F)(F)F)CC2=O)cc1 (stereo not drawn) | 2.79%
CC1CCCCC1NC(=O)CCN1N=C(c2ccccc2)CCC1=O (stereo not drawn) | 2.35%
CC(C)(C)NC(=O)CCn1nc(-c2ccc(Cl)cc2)ccc1=O | -3.58%
COc1cc(OC)cc(-c2nc3nc(C)c(CCC(=O)NCCc4ccc(Cl)cc4)c(C)n3n2)c1 | -6.03%
Cc1oc2cc3oc(=O)c(CC(=O)N4CCCC4)c(C)c3cc2c1-c1ccccc1 | 0.895%
O=C(Cn1ncn2cccc2c1=O)NCc1cccc(Cl)c1 | -3.6%
CCC(=O)Nc1sc2c(c1C(=O)Nc1ccc(C)cc1)CCC2 | 0.13%
COc1ccc(CNC(=O)CCCn2ncn3c(cc4occc43)c2=O)cc1OC | -2%
CCNC(=O)c1cc(-c2ccccc2)nc2ccccc12 | 0.205%
Cc1ccc(N2CCN(C(=O)c3ccccc3)CC2)cc1Cl | 0.528%
COC(=O)NCCC(c1ccccc1)c1ccccc1 | 0.13%
CCOc1ccc(-c2csc(/C(C#N)=C/c3cccc4ccccc34)n2)cc1 | -2.42%
CCOc1ccc(CNCc2c(C(=O)O)c(C)n(Cc3ccccc3F)c2C)cc1OC | 2.8%
Cc1ccc(OCC(=O)n2nc(C)cc2C)c(Br)c1 | -5.14%
Cc1ccc(C)c(-n2c(C)cc(/C=C3/C(=N)N4C=CSC4=NC3=O)c2C)c1 | 3.87%
O=c1ccc(-c2ccccc2)nn1Cc1ccc(F)cc1 | -0.946%

Structure (SMILES) | % Inhibition @ 10 uM
CCCCCN1C(C(=O)c2ccccc2)=C(OC(=O)c2ccco2)c2ccccc2S1(=O)=O | -2.71%
O=C(Cn1ncc2c3ccccc3n(Cc3ccccc3F)c2c1=O)NCCCN1CCCC1=O | -3.58%
O=C(O)Cn1nc(-c2ccccc2)cc1-c1ccccc1 | -5.43%
CC(C)(C)c1ccc(OCc2ccc(C(=O)N3CCN(C(=O)c4ccco4)CC3)cc2)cc1 | -0.519% and -0.725%
Cc1cccc(C)c1NC(=O)CSc1ncn(-c2ccccc2)n1 | -3.78%
Cc1cc(C)nc(-n2cc3c(=O)[nH]c(=S)[nH]c3n2)n1 | -3.33%
COc1cccc(-n2nnc3c(=O)n(Cc4cccc(C)c4)cnc32)c1 | -3.94%
Cc1ccc(-n2c(S)nnc2CN2CCN(C)CC2)cc1Cl | -2.42%
O=C(Cc1coc(-c2ccc(F)cc2)n1)N1CCOCC1 | 4.4%
NC(=O)C1C(=O)NC(c2ccccc2)=CC1c1ccc(Cl)cc1 (stereo not drawn) | -3.22%
O=C1CCCc2c1nc(-c1cccc(Cl)c1)n2O | 3.48%
CCOc1ccc(CCNC(=O)c2cc3c(s2)-c2ccccc2S(=O)(=O)C3)cc1 | 0.953%
NC(=O)c1cccc(NC(=O)c2ccccc2)c1 | 5.29%
CC1CCC(N2CCN(CCO)CC2)CC1 (stereo not drawn) | -5.44%
N#CCNC(=O)C(Cc1ccccc1)NC(=O)c1cnccn1 (stereo not drawn) | -3.14%
CCOC(=O)c1c(C)c(C(=O)NCc2ccc(C)cc2)c(C)n1C | 0.0579%
Cc1ccc(/C=C2\CN(C)C/C(=C\c3ccc(C)cc3)C2=O)cc1 | 1.07%
COc1ccc(-c2nc3ccccc3c(=O)n2CCCn2ccnc2)cc1 | -2.8%
CC(C)(C)c1cc(CN(CCO)CCO)c(O)c(C(C)(C)C)c1 | 4.8%
COc1cc2c(cc1OC)C(c1ccccc1)NCC2 (stereo not drawn) | -1.8%
COc1ccc(OC)c(/C=C2/SC(Nc3cccc(C(=O)O)c3)=NC2=O)c1 | -1.44%

From paper PMC6919601, “Identification of Plasmodium dipeptidyl aminopeptidase allosteric inhibitors by high throughput screening” (PLoS ONE, 2019)
